Assay results taken from PubChem BioAssay AID1645882 (National Center for Advancing Translational Sciences (NCATS), 2021).
Hit rate of the full screen: of about 16,000 compounds, about 120 (0.75%) were called active. About 4% were inconclusive and are not listed. Calls follow the shape of the dose curve; as a rule, active = well fitted inhibition curve with a large enough effect; inconclusive = small, poorly fitted or top-dose-only effect; inactive = no such curve, though single readings can be large or run the other way. This is one part of the list.

Biological target: Rap guanine nucleotide exchange factor 3 (Homo sapiens) (UniProt O95398)
Experiment: Validation qHTS for antagonist of cAMP-regulated guanine nucleotide exchange factor 3 (EPAC1);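 also: plate controls were DMSO for no effect and ATA control for full effect; nearly all actives have a fitted effect of over 75% in size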
Settings: EPAC1 Rap1B-BODIPY-GDP exchange, fluorescence; series mostly up to 150 µM; activity change, negative = inhibition: at the top concentration
How it was run: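 Nucleotide exchange followed as fluorescence loss when BODIPY-GDP leaves Rap1B (480 nm excitation, 540 nm emission), read at 5 min intervals over 30 min. Reaction: 100 nM EPAC1, 250 nM RAP1B-BODIPY-GDP, 50 uM GDP; ATA and DMSO define normalization.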

Sequence of UniProt O95398 (O95398 whole entry, looked up): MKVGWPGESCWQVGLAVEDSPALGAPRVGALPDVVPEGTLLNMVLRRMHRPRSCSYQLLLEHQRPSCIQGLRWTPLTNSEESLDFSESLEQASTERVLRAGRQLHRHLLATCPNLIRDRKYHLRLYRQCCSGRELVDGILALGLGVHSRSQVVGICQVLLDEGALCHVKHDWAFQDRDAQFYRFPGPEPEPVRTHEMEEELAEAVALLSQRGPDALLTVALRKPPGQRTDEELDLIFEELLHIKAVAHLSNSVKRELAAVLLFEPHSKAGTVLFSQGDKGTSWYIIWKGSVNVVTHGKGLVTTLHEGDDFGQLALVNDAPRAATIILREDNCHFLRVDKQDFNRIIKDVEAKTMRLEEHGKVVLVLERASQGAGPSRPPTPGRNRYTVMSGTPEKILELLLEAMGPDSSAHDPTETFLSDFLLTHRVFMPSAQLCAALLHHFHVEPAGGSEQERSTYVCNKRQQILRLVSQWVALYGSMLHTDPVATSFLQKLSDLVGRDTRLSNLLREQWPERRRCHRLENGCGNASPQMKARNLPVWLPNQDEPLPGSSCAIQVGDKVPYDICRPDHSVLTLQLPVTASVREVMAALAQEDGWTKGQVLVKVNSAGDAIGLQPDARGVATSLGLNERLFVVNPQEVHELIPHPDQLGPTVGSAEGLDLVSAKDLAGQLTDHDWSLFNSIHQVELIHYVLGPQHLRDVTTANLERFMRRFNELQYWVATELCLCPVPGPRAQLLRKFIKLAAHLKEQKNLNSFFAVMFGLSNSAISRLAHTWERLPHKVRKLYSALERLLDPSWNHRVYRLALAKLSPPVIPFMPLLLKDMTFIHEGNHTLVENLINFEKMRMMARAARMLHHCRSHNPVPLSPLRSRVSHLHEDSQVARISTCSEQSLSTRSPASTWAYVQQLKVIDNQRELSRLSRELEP

Activity change, negative = inhibition, inactive:
Nc1nc(N)c(N=O)c(N)n1 -8.93%
Cc1cc(OI)c(C(C)C)cc1-c1cc(C(C)C)c(OI)cc1C -5.09%
COc1cc(O)c(C(=O)/C=C/c2ccc(O)c(OC)c2)c(OC)c1 28.3%
CO[C@@H]1[C@@H](O[C@@H]2O[C@H](C)[C@@H](O[C@H]3C[C@@](C)(O)[C@@H](O)[C@H](C)O3)[C@H](N(C)C)[C@H]2O)[C@@H](CC=O)C[C@@H](C)[C@@H](O[C@@H]2CC[C@H](N(C)C)[C@@H](C)O2)/C=C/C=C/C[C@@H](C)OC(=O)C[C@H]1OC(C)=O 52.5%
Cc1noc(C)c1-c1nccc(NCCN2CCOCC2)n1 11.3%
Cc1nc([N+](=O)[O-])cn1-c1ccc([N+](=O)[O-])cc1 15.6%
Cc1cccc(CNc2cc(-c3ccccc3CN(C)C)ncn2)c1 22%
CC(O)c1nc2ccccc2[nH]1 (stereo unspecified) 5.07%
CN(C)C(=O)c1ccc(-c2nc(N(C)Cc3ccco3)c3ccccc3n2)cc1 -13.5%
O=C(Nc1ccccc1)N1CC2(CCN(C(=O)c3ccncc3)CC2)C1 13.9%
CC(=O)OCC(=O)[C@@]12OC3(CCCC3)O[C@@H]1C[C@H]1[C@@H]3CCC4=CC(=O)C=C[C@]4(C)[C@@]3(F)[C@@H](O)C[C@@]12C -11.1%
Cc1noc(C)c1-c1ccc2ncnc(N(C)Cc3ccco3)c2c1 8.68%
COc1cc(=O)n2c(c1C(=O)N(C)Cc1nccs1)CCN(Cc1cc(C)cc(C)c1)CC2 18.4%
C[C@H](Cc1ccccc1)Nc1ncnc2c1ncn2[C@@H]1O[C@H](CO)[C@@H](O)[C@H]1O
Cc1ccccc1-c1cncnc1N1CCN(C)CC1 18.7%
COc1ccccc1CN1CC[C@@]2(CCCN(C(=O)c3cnccn3)C2)C1 2.13%
COc1cc(-c2c(-c3cc(OC)c(OC)c(OC)c3)noc2C)ccc1F -2.64%
Cc1oc(=O)oc1CN1CCN(c2cc3c(cc2F)c(=O)c(C(=O)O)c2n3C(C)S2)CC1 (stereo unspecified) 7.8%
CN1CCN(c2ncc3nc(-c4cccs4)c(=O)n(Cc4cccs4)c3n2)CC1 16.8%
CO[C@H]1[C@@H](O)[C@H](N)[C@@H](O[C@H]2O[C@H]([C@H](C)N)CC[C@H]2N)[C@H](O)[C@@H]1N(C)C(=O)CN 30.2%
CSc1ncccc1C(=O)N1CCOc2ccc(C(C)(O)CCn3cccn3)cc2C1 (stereo unspecified) 10.6%
C[N+]1(C)C2CCC1CC(OC(=O)C(O)c1ccccc1)C2 (stereo unspecified) 6.68%
CO[C@@]12C[C@@H](COC(=O)c3cncc(Br)c3)CN(C)[C@H]1Cc1cn(C)c3cccc2c13 6.5%
COCCn1c(=O)c(-c2ccc(Cl)cc2)nc2cnc(N(C)C)nc21 -6.09%
COc1cccc(-c2ccc3ncnc(NCc4cccs4)c3c2)c1 2.01%
Cc1c(F)c(N2CCNC(C)C2)cc2c1c(=O)c(C(=O)O)cn2C1CC1 (stereo unspecified) 17.3%
C[C@@H]1O[C@@H](O[C@H]2[C@H](Oc3cc(O)c4c(c3)O[C@H](c3ccc(O)cc3)CC4=O)O[C@H](CO)[C@@H](O)[C@@H]2O)[C@H](O)[C@H](O)[C@H]1O 10.5%
COC(=O)N1CCC[C@@]2(CCN(C(=O)Nc3ccccc3)C2)C1 6.1%
CC(=O)OC1CC2C(C)(C)C(O)CCC2(C)C2CC[C@]3(C)C(=CC(=O)OC3c3ccoc3)C12C (stereo partly specified) -3.03%
O=C(O)C1=CC(O)[C@@H](O)C(O)C1 (stereo partly specified) 15.1%
CCOC(=O)N1CCN(c2nc(CN3CCCCC3CCO)nc3c(C)cccc23)CC1 (stereo unspecified) 12.9%
CSc1ccc(C(=O)N2CCc3c(cnc(C)c3CNC(=O)c3cncs3)C2)cc1 9.18%
COc1cc2c(cc1OC)Cc1cc(OC)c(OC)cc1Cc1cc(OC)c(OC)cc1C2 -3.76%
CCN1CCCC1=O 8.86%
CN(Cc1ccon1)C(=O)c1cnn(-c2ncc3c(n2)-c2ccccc2CCC3)c1C1CC1 13.2%
COc1ccc(-n2c(=O)c(-c3ccc(Cl)cc3)nc3cncnc32)cc1 15.3%
O=C(c1ccco1)N1CCC2(CCN(Cc3nccs3)CC2)CC1 12.7%
Cc1ccccc1CN1CCCOCCS1(=O)=O 9.54%
COc1cc2nc(CN(CCO)C3CS(=O)(=O)CC3O)nc(N3CCCCC3)c2cc1OC (stereo unspecified) 12.5%
CCC1(C2CCN(Cc3ccc(OC)cc3)CC2)NC(=O)N(CC2COc3ccccc3O2)C1=O (stereo unspecified) 19.2%
COc1ccc(OC)c(C(=O)N2CCOc3ccc(C(C)(O)CN(C)C)cc3C2)c1 (stereo unspecified) 11%
O=C(CCCCC(=O)Nc1c(I)cc(I)c(C(=O)O)c1I)Nc1c(I)cc(I)c(C(=O)O)c1I
CC(C)Cc1nc2cc(NS(=O)(=O)N(C)C)cc(C(=O)N3CCOCC3)c2n1C 23%
COC(=O)N1CCC[C@@]2(CCN(c3ccncc3)C2)C1 6.84%
CN(C)c1ncc2ncc(=O)n(Cc3ccc(F)cc3)c2n1 6.87%
Cc1ccc(C(=O)[C@@H]2[C@H]3C4COC(O4)C(=O)[C@@H]3[C@H]3C=Cc4ccccc4N32)cc1 (stereo partly specified) 20.3%
NS(=O)(=O)C#Cc1ccccc1 16.1% [at 75.8 µM]
Cc1ccc(CNc2nc(C)c(-c3ccn(CCN4CCOCC4)n3)s2)o1 3.77%
CC(=O)C1=C(O)C=C2Oc3c(C(C)=O)c(O)c(C)c(O)c3C2(C)C1=O (stereo unspecified) 14.8%
Cc1ccc(C(=O)C(C)CN2CCCCC2)cc1 (stereo unspecified)
CNCC[C@@H](Oc1ccccc1C)c1ccccc1
c1ccc(CN2CCC3(CCCc4ccccc43)CC2)cc1 -1.83% [at 75.8 µM]
CN(C)c1ccc(N2[C@@H](CC(=O)O)c3cc(C(F)(F)F)ccc3S2(=O)=O)cc1 4.75%
O=S1(=O)CCO[C@H]2CCCC[C@@H]2N1Cc1ccccc1Br -3.34%
COc1cc(/C=C/C(=O)c2c(O)cc(C)oc2=O)ccc1O -3.2%
Cn1c(=O)c(-c2cc(F)cc(F)c2)nc2cnc(Nc3ccccc3)nc21 -4.87%
Cc1ccc2cc(CNC(C)c3cccc4ccccc34)c(N3CCC(O)CC3)nc2c1 (stereo unspecified) -1.69%
C/C=C/c1ccc(O)c(OC)c1 24.4%
COc1cc(C(C)=O)cc(OC)c1O 2.29%
COc1ncc2nc(-c3cc(F)cc(F)c3)c(=O)n(-c3ccccc3)c2n1 -1.11%
CCN(CC)CCCN(c1ccccc1)C1Cc2ccccc2C1
CCNC(=O)[C@@H]1CCCN1C(=O)[C@H](CCCN=C(N)N)NC(=O)[C@H](CC(C)C)NC(=O)[C@@H](CC(C)C)NC(=O)[C@H](Cc1ccc(O)cc1)NC(=O)[C@H](CO)NC(=O)[C@H](Cc1c[nH]c2ccccc12)NC(=O)[C@H](Cc1cnc[nH]1)NC(=O)[C@@H]1CCC(=O)N1 10.8%
CN(C)Cc1ccccc1-c1nc(N2CCOCC2)c2ccccc2n1 18.9%
Nc1cccc2[nH]cnc12 -20%
COC(=O)[C@@H]1CCCN1Cc1ccc2c(c1)CN(Cc1nccs1)CCO2 11.3%
O=C(Nc1cccc(F)c1)N1CC2(CCN(S(=O)(=O)c3ccccc3)CC2)C1 -1.63%
CCC1C(=O)NCCN1Cc1ccc2c(c1)CN(Cc1cc(OC)c3c(c1)OCO3)CCO2 (stereo unspecified) -4.23%
CCCCCCCCCCCCCCCC(=O)OCC(COC(=O)CCCCCCCCCCCCCCC)OC(=O)CCCCCCCCCCCCCCC 12.6%
C[C@@H](C(=O)O)c1ccc(-c2ccccc2)c(F)c1 8.51%
COC(=O)[C@@H]1[C@H]2SC(C)(C)[C@H](C(=O)OC)N2C(=O)N1Cc1cc2ccccc2n1S(=O)(=O)c1ccccc1 8.96%
Cc1ccc2nc(N3CCCCCC3)c(CN(CC3CCCO3)C(=O)c3cncs3)cc2c1 (stereo unspecified) -0.783%
COc1ccc(CNc2ccnc(-c3cccnc3)n2)c(OC)c1 -4.15%
CNC(=O)[C@H]1O[C@H](n2cnc3c(NCc4cccc(I)c4)ncnc32)[C@@H](O)[C@@H]1O -5.08%
CC(C)c1c(C(=O)N(C)Cc2cccc3ncccc23)cnn1-c1nccc(-c2ccccc2F)n1 -8.44%
CC1=CC(=O)c2ccccc2C1=O 14.2%
CC1(C)S[C@@H]2[C@H](NC(=O)COc3ccccc3)C(=O)N2C1C(=O)OCC1CCCCC1 (stereo partly specified) -14.6%
COc1ccccc1CN1CC[C@@]2(CCCN(C(=O)c3cc(C(F)(F)F)cc(C(F)(F)F)c3)C2)C1 -6.19%
CN(C)c1ccc(-c2ccc3ncnc(N(C)Cc4ccco4)c3c2)cc1 -11.5%
CN(C)CCOc1ccccc1Cc1ccccc1 30.1%
O=C(c1ccncc1)N1CCC2(CCCN(c3cccc(-c4ccccc4)c3)C2)CC1 3.06%
COC(=O)N1CCC[C@@]2(CCN(C(=O)Nc3ccc(OC)cc3)C2)C1 22.9%
Cc1[nH]c2ccccc2c1/C=C/c1cnc2ccccc2n1 12%
N=C(N)N1CCc2ccccc2C1 15.9%
CCn1c(-c2ccccc2F)nc2cc(NC(C)=O)cc(C(=O)N3CCCC3c3nccs3)c21 (stereo unspecified) 14.6%
CC(NC(=O)c1cccnc1)c1nnc2n1CCN(Cc1ccc(F)cc1F)CC2 (stereo unspecified) 14.7%
O=C([C@@H]1CC=C[C@@H]2CCN(C3CCCCC3)C(=O)[C@@H]21)N1CCOCC1 -2.53%
COCCCOc1cc(C[C@@H](C[C@H](N)[C@@H](O)C[C@H](C(=O)NCC(C)(C)C(N)=O)C(C)C)C(C)C)ccc1OC 25.7%
CNCCCCOc1ccccc1Cc1ccccc1 2.14%
CN(CC(=O)N1CCOCC1)Cc1c(Cl)cccc1NC(=O)c1ccccc1 26%
C#C[C@]1(OC(C)=O)CC[C@H]2[C@@H]3CCC4=CC(=O)CC[C@@H]4[C@H]3CC[C@@]21C -7.55%
CCCCOC(=O)c1ccc(O)cc1 4.11%
COc1ccccc1CNc1cc(-c2cccc(NS(C)(=O)=O)c2)ncn1 0.819%
CCCc1nc2c(C)cc(-c3nc4ccccc4n3C)cc2n1Cc1ccc(-c2ccccc2C(=O)O)cc1 18.6%
CCC(O)c1ccccc1 (stereo unspecified) 16%
O=C(O)Cc1ccc(O)c(O)c1
COCC(=O)Nc1cc(C(=O)N2CCc3c(Cl)cccc3C2)c2c(c1)nc(-c1ccncc1)n2C 3.39%
